This passage reports enrichment ratio results from a collection of fitness landscapes (doi:10.1126/science.1257360).

Some of the results follow.

The labels stand for the following.
B1: PhoQ; a variant is named by its letters at X, in order, P23837 (parent)
chain: MKKLLRLFFPLSLRVRFLLATAAVVLVLSLAYGMVALIGYSVSFDKTTFRLLRGESNLFYTLAKWENNKLHVELPENIDKQSPTMTLIYDENGQLLWAQRDVPWLMKMIQPDWLKSNGFHEIEADVNDTSLLLSGDHSIQQQLQEVREDDDDAEMTHSVAVNVYPATSRMPKLTIVVVDTIPVELKSSYMVWSWFIYVLSANLLLVIPLLWVAAWWSLRPIEALAKEVRELEEHNRELLNPATTRELTSLVRNLNRLLKSERERYDKYRTTLTDLTHSLKTPLXXLQXXLRSLRSEKMSVSDAEPVMLEQISRISQQIGYYLHRASMRGGTLLSRELHPVAPLLDNLTSALNKVYQRKGVNISLDISPEISFVGEQNDFVEVMGNVLDNACKYCLEFVEISARQTDEHLYIVVEDDGPGIPLSKREVIFDRGQRVDTLRPGQGVGLAVAREITEQYEGKIVAGESMLGGARMEVIFGRQHSAPKDE

Variants of B1 are the subject of this test. The test can be described thus: enrichment ratio after two sorts for PhoP signalling (ratio (wild type AVST 3.29)); higher = more functional. Particulars: with PhoP (E. coli).
In the case of RIWL, the enrichment ratio is at most 0.25.

SLVI: the enrichment ratio was found to be 2.14.

As for QGSQ, the enrichment ratio was 10.9.

Take VHAY: the enrichment ratio is at most 0.25.

Take VYND: the enrichment ratio was at most 0.25.

As to PRAF, the enrichment ratio is at most 0.25.

Turning to HMYK, the enrichment ratio is at most 0.25.

Consider YHVT, for which the enrichment ratio is at most 0.25.

In the case of DPMA, the enrichment ratio is at most 0.25.

On to SSLF, for which the enrichment ratio was found to be 10.3.

Regarding RVMI, the enrichment ratio was at most 0.25.

Regarding TYKW, the enrichment ratio is at most 0.25.

Turning to SKAY, the enrichment ratio worked out at 2.19.

VKWV: the enrichment ratio was at most 0.25.

Turning to YEDT, the enrichment ratio was at most 0.25.

With KPSP, the enrichment ratio was at most 0.25.

With QVLL, the enrichment ratio is at most 0.25.

Regarding FLKP, the enrichment ratio was at most 0.25.

For the variant WWTF, the enrichment ratio is at most 0.25.

Take YLFF: the enrichment ratio is at most 0.25.

For the variant YNSN, the enrichment ratio is at most 0.25.

In the case of FFFI, the enrichment ratio was at most 0.25.

As to LIQI, the enrichment ratio was at most 0.25.

Regarding AHGA, the enrichment ratio was at most 0.25.

As for LMSQ, the enrichment ratio was at most 0.25.

Consider ESHV, for which the enrichment ratio is at most 0.25.

As to KDTG, the enrichment ratio is at most 0.25.

As for PITN, the enrichment ratio was at most 0.25.

In the case of ADCF, the enrichment ratio is at most 0.25.

Consider ANCN, for which the enrichment ratio came to 33.

With TELP, the enrichment ratio was at most 0.25.

LYMY: the enrichment ratio was at most 0.25.

IGSV: the enrichment ratio is at most 0.25.

As for ASVD, the enrichment ratio was at most 0.25.

Take FKTF: the enrichment ratio was at most 0.25.

As for FVPF, the enrichment ratio was at most 0.25.

With FFYT, the enrichment ratio was at most 0.25.

Regarding PETL, the enrichment ratio was at most 0.25.

For NRCC, the enrichment ratio was at most 0.25.

As for MKEH, the enrichment ratio is at most 0.25.

Regarding ESSQ, the enrichment ratio is at most 0.25.

Consider MLTN, for which the enrichment ratio is at most 0.25.

Turning to VNAM, the enrichment ratio is at most 0.25.

Take DTPH: the enrichment ratio was at most 0.25.

As to QWSH, the enrichment ratio was at most 0.25.

For TVFI, the enrichment ratio is at most 0.25.

With INAA, the enrichment ratio is at most 0.25.

Turning to DNLN, the enrichment ratio is at most 0.25.

As for YQCR, the enrichment ratio is at most 0.25.

Turning to VPSH, the enrichment ratio is at most 0.25.

As to VEAL, the enrichment ratio is at most 0.25.

Take IEGR: the enrichment ratio was at most 0.25.

Regarding QEVW, the enrichment ratio was at most 0.25.

In the case of MQCT, the enrichment ratio is at most 0.25.

STFL: the enrichment ratio was at most 0.25.

As for HKDG, the enrichment ratio was at most 0.25.

LHDP: the enrichment ratio is at most 0.25.

WQYW: the enrichment ratio is at most 0.25.

As for WLDK, the enrichment ratio was at most 0.25.

With SLTG, the enrichment ratio was found to be 12.5.

On to DIRV, for which the enrichment ratio stood at 2.11.

With ECKE, the enrichment ratio is at most 0.25.

In the case of HQKD, the enrichment ratio was at most 0.25.

Turning to QYTL, the enrichment ratio was at most 0.25.

With QHHQ, the enrichment ratio is at most 0.25.

Turning to DNMP, the enrichment ratio was at most 0.25.

Regarding AMHR, the enrichment ratio is at most 0.25.

As to YGWE, the enrichment ratio is at most 0.25.

Regarding IKHN, the enrichment ratio was at most 0.25.

For the variant TSFR, the enrichment ratio was at most 0.25.

On to DHMA, for which the enrichment ratio is at most 0.25.

For the variant GGMR, the enrichment ratio was at most 0.25.

HDWF: the enrichment ratio is at most 0.25.

As to NDWC, the enrichment ratio was at most 0.25.

Turning to TPRD, the enrichment ratio was at most 0.25.

For YMHC, the enrichment ratio was at most 0.25.

Consider WSCA, for which the enrichment ratio is at most 0.25.

PSQG: the enrichment ratio was at most 0.25.

Take FTSP: the enrichment ratio is at most 0.25.

Consider RSPC, for which the enrichment ratio was at most 0.25.

As to AICW, the enrichment ratio was at most 0.25.

As to ARHQ, the enrichment ratio was at most 0.25.

On to NQNH, for which the enrichment ratio is at most 0.25.

Turning to TDNK, the enrichment ratio is at most 0.25.

On to PEIT, for which the enrichment ratio is at most 0.25.

For the variant VFFT, the enrichment ratio is at most 0.25.

Consider LENF, for which the enrichment ratio is at most 0.25.

In the case of PKSQ, the enrichment ratio was at most 0.25.

ISNM: the enrichment ratio was at most 0.25.

For IVFM, the enrichment ratio is at most 0.25.

As for PNHC, the enrichment ratio is at most 0.25.

With DVPI, the enrichment ratio was at most 0.25.

For EMSM, the enrichment ratio was at most 0.25.

As to ITCN, the enrichment ratio was at most 0.25.

Consider LRGY, for which the enrichment ratio is at most 0.25.

As to LNDW, the enrichment ratio is at most 0.25.

Take MSKV: the enrichment ratio is at most 0.25.

On to LFCR, for which the enrichment ratio was at most 0.25.

Turning to IFIH, the enrichment ratio is at most 0.25.

For the variant NMQR, the enrichment ratio was at most 0.25.

Take VPNN: the enrichment ratio is at most 0.25.

Regarding VRKI, the enrichment ratio was at most 0.25.

For the variant KYGC, the enrichment ratio is at most 0.25.

Consider MTED, for which the enrichment ratio was at most 0.25.

With IVSD, the enrichment ratio was at most 0.25.

In the case of MCVI, the enrichment ratio was at most 0.25.

For PPHH, the enrichment ratio is at most 0.25.

QTWV: the enrichment ratio was at most 0.25.

With RYYM, the enrichment ratio is at most 0.25.

Turning to TLWY, the enrichment ratio is at most 0.25.

As to EDYV, the enrichment ratio is at most 0.25.

As to EECE, the enrichment ratio is at most 0.25.

Regarding VNYD, the enrichment ratio is at most 0.25.

In the case of SFFI, the enrichment ratio was at most 0.25.

For the variant QYWH, the enrichment ratio was at most 0.25.

RYYS: the enrichment ratio was at most 0.25.

With DWGV, the enrichment ratio was at most 0.25.

As for DMLG, the enrichment ratio is at most 0.25.

Consider QGFL, for which the enrichment ratio turned out to be 1.75.

As for DVVS, the enrichment ratio was at most 0.25.

As to NTCG, the enrichment ratio was at most 0.25.

As for QYFN, the enrichment ratio is at most 0.25.

For the variant NEAS, the enrichment ratio stood at 8.28.

For the variant PHQP, the enrichment ratio was at most 0.25.

As for QHTH, the enrichment ratio was at most 0.25.

Take HCGS: the enrichment ratio is at most 0.25.

In the case of SHPM, the enrichment ratio was at most 0.25.

For the variant MSAG, the enrichment ratio was found to be 9.23.

For the variant IRNL, the enrichment ratio is at most 0.25.

Regarding TICK, the enrichment ratio was found to be 1.1.

Turning to AMWH, the enrichment ratio was at most 0.25.

Turning to HADA, the enrichment ratio is at most 0.25.

Turning to EYNS, the enrichment ratio is at most 0.25.

In the case of ECSW, the enrichment ratio is at most 0.25.

Take IFLD: the enrichment ratio was at most 0.25.

For the variant SARD, the enrichment ratio was at most 0.25.

For the variant YTCC, the enrichment ratio was at most 0.25.

For IGYI, the enrichment ratio is at most 0.25.

For the variant LDPH, the enrichment ratio was at most 0.25.

In the case of TCWL, the enrichment ratio was found to be 7.59.

On to YNQE, for which the enrichment ratio is at most 0.25.

In the case of KGIW, the enrichment ratio was at most 0.25.

Take HMDM: the enrichment ratio is at most 0.25.

For the variant TLGY, the enrichment ratio stood at 3.25.

For IPSE, the enrichment ratio is at most 0.25.

Consider HTSR, for which the enrichment ratio is at most 0.25.

As to FKDM, the enrichment ratio is at most 0.25.

EFCW: the enrichment ratio is at most 0.25.

On to FCPD, for which the enrichment ratio was at most 0.25.

For DHQY, the enrichment ratio was at most 0.25.

Regarding KTDS, the enrichment ratio was at most 0.25.

Regarding KLFN, the enrichment ratio was at most 0.25.

Turning to MWYI, the enrichment ratio is at most 0.25.
